The record followed here is the supplement of paper PMC10126150.

The test system of this data set is ATP. Description: switch fluorescence ratio, 500 uM ATP over buffer (Cy3 cluster intensity, sum of 5 cycles each) (fold (ratio)); higher = stronger signal-on switching upon ATP binding; sequences stand for … in TCGTCGGCAGCGTCAGATGTGTATAAGAGACAGTTTTTTTTTTTTTTTTTTTTTTTTT…TC. The conditions noted are these: aptamer strand: ATP DNA aptamer (quencher-CACCTGGGGGAGTATTGCGGAGGAAGG + anchor), 100 nM annealed; ATP concentration: 500 uM; one replicate. The method in brief: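 Cy3-labelled switching-strand clusters on a modified Illumina MiSeq flow-cell were annealed to 100 nM quencher-labelled ATP aptamer and imaged first in selection buffer, then after 15 min with 500 uM ATP at 22 °C. NaOH stripping and re-annealing separated each of five buffer/ATP cycles, and clusters outside 100-1000 RFU were excluded. The fluorescence ratio sums target-cycle Cy3 intensity over buffer-cycle Cy3 intensity per cluster and averages it per switch-domain sequence.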

Sequences with one replicate were seen in a single cluster, so their values are uncertain.
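Note: ATP exposure 15 min at 22 °C before imaging.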

CAGGCTGGTA: the switch fluorescence ratio is 0.974.
As to TACTTCAGCC, the switch fluorescence ratio amounted to 1.15.
For the sequence CTGGATAAAT, the switch fluorescence ratio was 0.998.
Next, TCATTTCTGG: 0.98.
Next, CATATTACTA: 1.01; CAACTTCCCT: 1.05; AGAAGAGGCG: 0.944.
Turning to ACGTCAATGG, the switch fluorescence ratio was 1.94.
Next, AAGGGGTC: 1.05; GTGGTGTGC: 1.01; GAAAGGATCT: 1.03.
Consider CCACGTCGCT, for which the switch fluorescence ratio was determined as 1.01.
Regarding TGGTGAAGA, the switch fluorescence ratio stood at 1.02.
ACGACTGAAT: the switch fluorescence ratio came to 1.08.
Next, TGCGGTAGTC: 0.937.
For the sequence TCTTTAACAG, the switch fluorescence ratio is 1.03.
In the case of GGTTGAAAAT it was 1.01; in that of GAAATGTCTA, 1.02.
In the case of CGGGGCATAA it was 1.1; in that of AAATTGAAGG, 1.
On to GTTCAAATTG, for which the switch fluorescence ratio came to 1.02.
Consider ATTCTGACCA, for which the switch fluorescence ratio was found to be 1.05.
In the case of GGTAGGTGAG it was 0.987; in that of TGTAGGCTAG, 0.987; in that of CGCAGTGCCC, 1.93.
As to CTGCAAGCA, the switch fluorescence ratio stood at 1.67.
In the case of CTAAGGTG it was 1.5.
In the case of TCACAGGGAG it was 1.02; in that of GTAATAATAG, 0.995.
In the case of CCTGGCCGTG, the switch fluorescence ratio was found to be 1.06.
With ATTCTCGAAT, the switch fluorescence ratio was 0.947.
Take ACGGTAATTA: the switch fluorescence ratio came out at 1.12.
Next, ATACTAACG: 1.36.
In the case of CGCGGGTAG it was 1.02; in that of CGACAGACTC, 1.31.
Next, AATTCTCAAG: 0.999; TTTGTCCTT: 1.02.
Regarding TATCGAGAAC, the switch fluorescence ratio turned out to be 0.989.
As for GGAATTGAGA, the switch fluorescence ratio came to 1.04.
Next, CCCAAGTCAT: 1.03.
For the sequence AGCCAAACGA, the switch fluorescence ratio came out at 0.989.
Consider CCTGAATGCA, for which the switch fluorescence ratio worked out at 1.07.
As for CCAGAGTTGT, the switch fluorescence ratio worked out at 1.07.
For CAATGAGGTC, the switch fluorescence ratio worked out at 0.851.
CCGTACAATG: the switch fluorescence ratio came out at 2.92.
Take GAATCCCGAG: the switch fluorescence ratio came out at 0.978.
With CTAATCAAAG, the switch fluorescence ratio was determined as 1.03.
Regarding TCCATTGGT, the switch fluorescence ratio came out at 1.02.
For AATCACATCT, the switch fluorescence ratio was 1.
In the case of CCCGGGTCTA it was 1.05; in that of GTCTGACGGA, 1.01.
Consider AGCTGGCGG, for which the switch fluorescence ratio turned out to be 0.996.
TAGTTTCGGT: the switch fluorescence ratio worked out at 0.992.
Next, CAAGCCTCGT: 1.02.
Consider ACACCAGCCG, for which the switch fluorescence ratio amounted to 1.05.
In the case of GACGAAATAA it was 1.79; in that of CAATGAAGGG, 0.982.
AGTGTCTGGA: the switch fluorescence ratio worked out at 0.982.
On to ACGATGTCGT, for which the switch fluorescence ratio was 1.03.
Regarding TGCGTCTGGA, the switch fluorescence ratio was found to be 1.03.
Consider ACAATTAGGG, for which the switch fluorescence ratio was determined as 0.991.
Take TATGGTCTAT: the switch fluorescence ratio stood at 0.981.
As to TTTTCGTACT, the switch fluorescence ratio was found to be 1.05.
In the case of GCGCGGGGCG it was 1.01; in that of GTGAAGCGT, 0.976.
As for CAAAATAGGC, the switch fluorescence ratio is 1.08.
For GTTTGACTCT, the switch fluorescence ratio stood at 0.992.
Next, ATTCGGCCGG: 1; ACTTCTTCTC: 1.03.
As for GCCGTCTTTA, the switch fluorescence ratio came to 0.987.
In the case of GATTGGTAGT it was 0.96.
In the case of TCCCTCCTAT it was 1; in that of GTTACTGAAG, 0.998.
Take TTGTGTGTT: the switch fluorescence ratio worked out at 0.991.
As for TTTGAACTGA, the switch fluorescence ratio stood at 0.964.
As to ACATTTCGTT, the switch fluorescence ratio came to 1.01.
In the case of TTGGATATCA, the switch fluorescence ratio worked out at 1.04.
For CCGTGGGGCA, the switch fluorescence ratio worked out at 1.01.
For AATTCGGACT, the switch fluorescence ratio was determined as 1.27.
